{"source": "the supplement of paper PMC8728848", "binders": {"B1": {"name": "Surfactant Protein D (Human); Neck + Carbohydrate Recognition Domain (NCRD) (Homo sapiens) (protein)", "chain": "MLLFLLSALVLLTQPLGYLEAEMKTYSHRTMPSACTLVMCSSVESGLPGRDRDGREGPRGEKGDPGLPGAAGQAGMPGQAGPVGPKGDNGSVGEPGPKGDTGPSGPPGPPGVPGPAGREGALGKQGNIGPQGKPGPKGEAGPKGEVGAPGMQGSAGARGLAGPKGERGVPGERGVPGNTGAAGSAGAMGPQGSPGARGPPGLKGDKGIPGDKGAKGESGLPDVASLRQQVEALQGQVQHLQAAFSQYKKVELFPNGQSVGEKIFKTAQFVKPFTEAQLLCTQAGGQLASPRSAAENAALQQLVVAKNEAAFLSMTDSKTEGKFTYPTGESLVYSNWAPGEPNDDGGSEDCVEIFTNGKWNDKACGEKRLVVCEF"}}, "assay_in_all_cases": "glycan array binding signal (z-score within array); higher = stronger binding", "conditions_in_all_cases": "glycan notation: IUPAC condensed, linker removed; mutation: R343K", "key": {"[1]": {"molecular_target": "Fuc(a1-2)[GalNAc(a1-3)]Gal(b1-4)[Fuc(a1-3)]GlcNAc", "how_it_was_run": "(§1)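 From the Consortium for Functional Glycomics database, 3228 arrays were curated, keeping only those whose protein sequence was available. Binding is given as a within-array Z-score averaged across arrays sharing a protein sequence and across linkers. Negative Z-scores can be read as non-binding.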"}, "[2]": {"molecular_target": "Fuc(a1-2)[GalNAc(a1-4)]Gal(b1-4)GlcNAc", "how_it_was_run": "as §1"}, "[3]": {"molecular_target": "Fuc(a1-2)[GalNAc(b1-3)]Gal", "how_it_was_run": "as §1"}, "Fuc(a1-3)GlcNAc": {"molecular_target": "Fuc(a1-3)GlcNAc", "how_it_was_run": "as §1"}, "[4]": {"molecular_target": "Fuc(a1-3)[Gal(b1-4)]Glc6S", "how_it_was_run": "as §1"}, "[5]": {"molecular_target": "Fuc(a1-3)[Gal(b1-4)]GlcNAc", "how_it_was_run": "as §1"}, "[6]": {"molecular_target": "Fuc(a1-3)[Gal(b1-4)]GlcNAc(b1-2)Man(a1-3)[Fuc(a1-3)[Gal(b1-4)]GlcNAc(b1-2)Man(a1-6)]Man(b1-4)GlcNAc(b1-4)GlcNAc", "how_it_was_run": "as §1"}, "[7]": {"molecular_target": "Fuc(a1-3)[Gal(b1-4)]GlcNAc(b1-2)Man(a1-6)[Gal(b1-4)GlcNAc(b1-2)Man(a1-3)]Man(b1-4)GlcNAc(b1-4)GlcNAc", "how_it_was_run": "as §1"}, "[8]": {"molecular_target": "Fuc(a1-3)[Gal(b1-4)]GlcNAc(b1-3)Gal(b1-3)[Fuc(a1-4)]GlcNAc", "how_it_was_run": "as §1"}, "[9]": {"molecular_target": "Fuc(a1-3)[Gal(b1-4)]GlcNAc(b1-4)Gal(b1-4)[Fuc(a1-3)]GlcNAc", "how_it_was_run": "as §1"}, "[10]": {"molecular_target": "Fuc(a1-3)[Gal(b1-4)]GlcNAc(b1-4)Gal(b1-4)[Fuc(a1-3)]GlcNAc(b1-4)Gal(b1-4)[Fuc(a1-3)]GlcNAc", "how_it_was_run": "as §1"}, "[11]": {"molecular_target": "Fuc(a1-3)[Gal(b1-4)]GlcNAc6S", "how_it_was_run": "as §1"}, "[12]": {"molecular_target": "Fuc(a1-3)[Gal3S(b1-4)]Glc6S", "how_it_was_run": "as §1"}, "[13]": {"molecular_target": "Fuc(a1-3)[Gal3S(b1-4)]GlcNAc", "how_it_was_run": "as §1"}, "[14]": {"molecular_target": "Fuc(a1-3)[Gal3S(b1-4)]GlcNAc6S", "how_it_was_run": "as §1"}, "[15]": {"molecular_target": "Fuc(a1-3)[GalNAc(b1-4)]GlcNAc", "how_it_was_run": "as §1"}, "Fuc(a1-4)GlcNAc": {"molecular_target": "Fuc(a1-4)GlcNAc", "how_it_was_run": "as §1"}, "Fuc(b1-3)GlcNAc": {"molecular_target": "Fuc(b1-3)GlcNAc", "how_it_was_run": "as §1"}, "Gal(a1-2)Gal": {"molecular_target": "Gal(a1-2)Gal", "how_it_was_run": "as §1"}, "Gal(a1-3)Gal": {"molecular_target": "Gal(a1-3)Gal", "how_it_was_run": "as §1"}, "Gal(a1-3)Gal(b1-3)GlcNAc": {"molecular_target": "Gal(a1-3)Gal(b1-3)GlcNAc", "how_it_was_run": "as §1"}, "Gal(a1-3)Gal(b1-4)Glc": {"molecular_target": "Gal(a1-3)Gal(b1-4)Glc", "how_it_was_run": "as §1"}, "Gal(a1-3)Gal(b1-4)GlcNAc": {"molecular_target": "Gal(a1-3)Gal(b1-4)GlcNAc", "how_it_was_run": "as §1"}, "[16]": {"molecular_target": "Gal(a1-3)Gal(b1-4)[Fuc(a1-3)]GlcNAc", "how_it_was_run": "as §1"}, "Gal(a1-3)GalNAc": {"molecular_target": "Gal(a1-3)GalNAc", "how_it_was_run": "as §1"}, "[17]": {"molecular_target": "Gal(a1-3)[Gal(a1-4)]Gal(b1-4)GlcNAc", "how_it_was_run": "as §1"}, "Gal(a1-4)Gal(b1-4)Glc": {"molecular_target": "Gal(a1-4)Gal(b1-4)Glc", "how_it_was_run": "as §1"}, "Gal(a1-4)Gal(b1-4)GlcNAc": {"molecular_target": "Gal(a1-4)Gal(b1-4)GlcNAc", "how_it_was_run": "as §1"}, "Gal(a1-4)GlcNAc": {"molecular_target": "Gal(a1-4)GlcNAc", "how_it_was_run": "as §1"}, "Gal(a1-6)Glc": {"molecular_target": "Gal(a1-6)Glc", "how_it_was_run": "as §1"}, "Gal(b1-2)Gal": {"molecular_target": "Gal(b1-2)Gal", "how_it_was_run": "as §1"}, "Gal(b1-3)Gal": {"molecular_target": "Gal(b1-3)Gal", "how_it_was_run": "as §1"}, "Gal(b1-3)Gal(b1-4)GlcNAc": {"molecular_target": "Gal(b1-3)Gal(b1-4)GlcNAc", "how_it_was_run": "as §1"}, "Gal(b1-3)GalNAc": {"molecular_target": "Gal(b1-3)GalNAc", "how_it_was_run": "as §1"}, "[18]": {"molecular_target": "Gal(b1-3)GalNAc(b1-3)Gal(a1-4)Gal(b1-4)Glc", "how_it_was_run": "as §1"}, "[19]": {"molecular_target": "Gal(b1-3)GalNAc(b1-4)Gal(b1-4)Glc", "how_it_was_run": "as §1"}, "[20]": {"molecular_target": "Gal(b1-3)GalNAc(b1-4)[Neu5Ac(a2-3)]Gal(b1-4)Glc", "how_it_was_run": "as §1"}}, "note": "The other results are listed elsewhere or left out."}
{"binder": "B1", "values": [{"measurement": "glycan array binding signal (z-score)", "setting": "[1]", "result": -0.154}, {"measurement": "glycan array binding signal (z-score)", "setting": "[2]", "result": -0.149}, {"measurement": "glycan array binding signal (z-score)", "setting": "[3]", "result": -0.145}, {"measurement": "glycan array binding signal (z-score)", "setting": "Fuc(a1-3)GlcNAc", "result": -0.154}, {"measurement": "glycan array binding signal (z-score)", "setting": "[4]", "result": -0.154}, {"measurement": "glycan array binding signal (z-score)", "setting": "[5]", "result": -0.153}, {"measurement": "glycan array binding signal (z-score)", "setting": "[6]", "result": -0.148}, {"measurement": "glycan array binding signal (z-score)", "setting": "[7]", "result": -0.147}, {"measurement": "glycan array binding signal (z-score)", "setting": "[8]", "result": -0.148}, {"measurement": "glycan array binding signal (z-score)", "setting": "[9]", "result": -0.157}, {"measurement": "glycan array binding signal (z-score)", "setting": "[10]", "result": -0.155}, {"measurement": "glycan array binding signal (z-score)", "setting": "[11]", "result": -0.144}, {"measurement": "glycan array binding signal (z-score)", "setting": "[12]", "result": -0.135}, {"measurement": "glycan array binding signal (z-score)", "setting": "[13]", "result": -0.152}, {"measurement": "glycan array binding signal (z-score)", "setting": "[14]", "result": -0.142}, {"measurement": "glycan array binding signal (z-score)", "setting": "[15]", "result": -0.151}, {"measurement": "glycan array binding signal (z-score)", "setting": "Fuc(a1-4)GlcNAc", "result": -0.143}, {"measurement": "glycan array binding signal (z-score)", "setting": "Fuc(b1-3)GlcNAc", "result": -0.154}, {"measurement": "glycan array binding signal (z-score)", "setting": "Gal(a1-2)Gal", "result": -0.149}, {"measurement": "glycan array binding signal (z-score)", "setting": "Gal(a1-3)Gal", "result": -0.149}, {"measurement": "glycan array binding signal (z-score)", "setting": "Gal(a1-3)Gal(b1-3)GlcNAc", "result": -0.157}, {"measurement": "glycan array binding signal (z-score)", "setting": "Gal(a1-3)Gal(b1-4)Glc", "result": -0.151}, {"measurement": "glycan array binding signal (z-score)", "setting": "Gal(a1-3)Gal(b1-4)GlcNAc", "result": -0.154}, {"measurement": "glycan array binding signal (z-score)", "setting": "[16]", "result": -0.146}, {"measurement": "glycan array binding signal (z-score)", "setting": "Gal(a1-3)GalNAc", "result": -0.149}, {"measurement": "glycan array binding signal (z-score)", "setting": "[17]", "result": -0.14}, {"measurement": "glycan array binding signal (z-score)", "setting": "Gal(a1-4)Gal(b1-4)Glc", "result": -0.153}, {"measurement": "glycan array binding signal (z-score)", "setting": "Gal(a1-4)Gal(b1-4)GlcNAc", "result": -0.154}, {"measurement": "glycan array binding signal (z-score)", "setting": "Gal(a1-4)GlcNAc", "result": -0.14}, {"measurement": "glycan array binding signal (z-score)", "setting": "Gal(a1-6)Glc", "result": -0.151}, {"measurement": "glycan array binding signal (z-score)", "setting": "Gal(b1-2)Gal", "result": -0.155}, {"measurement": "glycan array binding signal (z-score)", "setting": "Gal(b1-3)Gal", "result": -0.156}, {"measurement": "glycan array binding signal (z-score)", "setting": "Gal(b1-3)Gal(b1-4)GlcNAc", "result": -0.146}, {"measurement": "glycan array binding signal (z-score)", "setting": "Gal(b1-3)GalNAc", "result": -0.152}, {"measurement": "glycan array binding signal (z-score)", "setting": "[18]", "result": -0.147}, {"measurement": "glycan array binding signal (z-score)", "setting": "[19]", "result": -0.152}, {"measurement": "glycan array binding signal (z-score)", "setting": "[20]", "result": -0.147}]}
